Experimental data published in PubChem BioAssay AID2006 (Sanford-Burnham Center for Chemical Genomics, 2009).
This is one part of the list. These are further read-outs of the screen, such as a control signal, another cell line or another target. No call is given for them.

What follows are molecules tested against SUMO-conjugating enzyme UBC9 (Homo sapiens) (UniProt P63279) (assay: inhibitors of in vitro SUMOylation cascade, primary screen, biochemical, HTRF, uHTS (AID 2006)). Details: HTRF SUMOylation assay, SAE1/SAE2 + UBC9, in vitro; average of repeat tests; at 35 µM; stronger effect = higher value.
Chain of UniProt P63279 (P63279 whole entry, looked up): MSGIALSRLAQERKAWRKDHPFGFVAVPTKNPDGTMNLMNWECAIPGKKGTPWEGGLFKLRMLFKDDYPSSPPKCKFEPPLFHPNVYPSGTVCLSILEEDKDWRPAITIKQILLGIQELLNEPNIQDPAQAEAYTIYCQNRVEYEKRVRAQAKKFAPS

Structure (SMILES) | inhibition [%]
c1cc(Nc2ncnc3sc4c(c23)CCC4)ccn1 | 44.1
COc1ccc(NC(=O)CN2C(=O)S/C(=C/c3cccn3-c3ccc(C(=O)O)cc3)C2=O)cc1 | 62.1
COc1ccc(C)c2sc(NC(=O)c3cccc(N4C(=O)CCC4=O)c3)nc12 | 45.8
C=CCn1c(N)c(C(=O)OC(C)(C)C)c2nc3ccccc3nc21 | 36.9
Nc1ccc(-c2nc3ccc(N)cc3[nH]2)cc1 | 61.1
COc1ccc(-c2cc(C(F)(F)F)n3ncc(C(=O)NCc4ccco4)c3n2)cc1 | 61.9
O=C(/C=C/c1ccco1)NC(=S)Nc1cc(-c2nc3ccccc3s2)ccc1Cl | 45.6
Cn1c2ccccc2c(=O)n2c(=O)c3ccccc3cc12 | 59.2
CCN(CC)C(=O)COc1ccc2oc(-c3ccco3)cc(=O)c2c1 | 53.5
Cn1c(-c2ccc(C=O)s2)nc2ccccc21 | 55.1
COc1ccc(C2=NN(C(=O)c3cccs3)C(c3ccccc3O)C2)cc1 (stereo not drawn) | 34.3
CC(=O)NC1C(=O)N(CCN2CCOCC2)c2ccc(Br)cc21 (stereo not drawn) | 83.5
O=C(Nc1ccccc1-c1nc2ccccc2s1)c1cccnc1Cl | 65
O=C1N(c2ccc(Cl)c(Cl)c2)CN(Cc2ccccc2)CN1n1cnnc1 | 48.3
Cc1ccc(NC(=O)Nc2ccno2)cc1 | 80.1
O=C(c1ccc2c(c1)[nH]c(=S)n1c3ccccc3nc21)N1CCN(c2ncccn2)CC1 | 48.9
CCOc1ccc(C2C=C(c3ccccc3)Nc3ncnn32)cc1 (stereo not drawn) | 52.5
O=C(Cn1c2ccccc2c(=O)c2ccccc21)N/N=C/c1cc([N+](=O)[O-])ccc1N1CCCCCC1 | 50
Cn1c(C(=O)N2COCC2(C)C)cc2c(=O)n3ccccc3nc21 | 58.6
COc1ccc2nc(-c3ccco3)c(-c3ccco3)nc2c1 | 36.7
O=C1C=C(Nc2ccccc2)c2ccccc2C1=O | 34.2
Cc1ccsc1C=Nc1ccc(O)cc1 | 42.4
O=C(NC1(O)C(=O)c2ccccc2C1=O)c1ccc(C(F)(F)F)cc1 | 93.7

Structure (SMILES) | inhibition [%]
C/C(=N\NC(=O)c1cc(O)cc(O)c1)c1ccc(NC(=O)Cc2ccccc2)cc1 | 81
N=C1/C(=C\c2ccc(SCc3ccco3)o2)C(=O)N=C2SC=NN12 | 41.1
Cc1cc(/C=C2\C(=N)N3N=C(c4ccco4)SC3=NC2=O)c(C)n1Cc1ccccc1 | 39.5
O=C(O)/C=C/c1cn(-c2ccccc2)nc1-c1cc2ccccc2o1 | 47.5
Cc1oc2c(c(C)cc3oc(=O)c(CC(=O)NCC(=O)NCC(=O)O)c(C)c32)c1C | 54.4
Cc1ccc(NC(=O)CN2C(=O)N/C(=C/c3cccn3-c3ccc(C(=O)O)cc3)C2=O)cc1 | 84.3
O=S(=O)(c1ccc2nc(-c3ccco3)c(-c3ccco3)nc2c1)N1CCOCC1 | 36
O=c1c2ccccc2oc2cc(NCCCN3CCOCC3)ccc12 | 59.2
CC(=O)Oc1ccc2cc(-c3nc4ccccc4n3C)c(=O)oc2c1 | 46.4
CN(C)c1cccc2c(S(=O)(=O)N3CCCC3)cccc12 | 42.1
CCCN(C(=O)c1cc2c(s1)CCC2)c1c(N)n(Cc2ccccc2)c(=O)[nH]c1=O | 37.1
Cc1oc2c(c(C)cc3oc(=O)c(CC(=O)N[C@H](C(=O)O)C(C)C)c(C)c32)c1C | 59.6
Cc1c(C(=O)Nc2ccc(F)cc2)cn2c(nc3ccccc32)c1C#N | 53
Cn1nccc1NC(=O)Nc1cccc(Cl)c1 | 73.8
Cc1ccc(-c2cc(-c3ccccc3O)nc(N/N=C/c3cccnc3)n2)cc1 | 67.5
COc1ccc2oc(=O)c(C(=O)NCC3CCCO3)cc2c1 (stereo not drawn) | 43.4
Cc1nn2cc(-c3ccccc3)nc2[nH]c1=O | 63.9
COc1cc2c(cc1OC)-c1cc3ccc4c(c3c[n+]1CC2)OCO4 | 33.1
CC1CCN(Cc2cc(=O)oc3cc(O)c(Cl)cc23)CC1 | 57.2
COc1cc(/C=C2\C(=O)N(c3ccc(S(N)(=O)=O)cc3)N=C2C)ccc1OC(=O)c1ccco1 | 32.7
CCc1ccc(S(=O)(=O)/N=C2\C=CC(=O)c3ccccc32)cc1 | 54.1
CN(C)/C=N/c1nc2nccc(-c3ccc(F)cc3)n2n1 | 42
O=c1[nH]c(=S)[nH]c(O)c1N=Nc1ccc(-c2ccccc2)cc1[N+](=O)[O-] | 63.9

Structure (SMILES) | inhibition [%]
O=C(NN1C(=O)/C(=C/C=C/c2ccco2)SC1=S)c1ccncc1 | 44.5
COCCCn1c(C(=O)N2CC(C)OC(C)C2)cc2c(=O)n3ccccc3nc21 (stereo not drawn) | 54.4
Nc1c(C(=O)NCc2ccco2)c2nc3ccccc3nc2n1CCc1ccc(F)cc1 | 57
COc1cc(Br)c(C(=O)c2nccc3cc(OC)c(OC)cc23)cc1OC | 35.6
O=C(Nc1ccc(Br)cc1)c1ccc(N2C(=O)C3CC=C(Cl)CC3C2=O)cc1 (stereo not drawn) | 36.6
CCOc1ccc(-n2c(SCC(=O)Nc3ccc(CC)cc3)nc3n[nH]c(C)c3c2=N)cc1 | 47.8
Cn1nccc1NC(=O)Nc1cccc(Br)c1 | 77.7
Cc1cc(NCCO)c2cc(O)ccc2n1 | 60.9
CN(C)C=Nc1ccc2nc3c(cc2c1)[nH]c1ccccc13 | 55
CCOC(=O)Cn1c2ccccc2c2nc3ccccc3nc21 | 46
CN(C)c1cccc(C(=O)OCc2cc(=O)oc3cc(O)ccc23)c1 | 41.8
COc1ccc(/C=C(\C#N)C(=O)OCC(=O)NCc2ccccc2Cl)cc1 | 38.3
Cc1ccc(C(=O)O)cc1-c1ccc(/C=C2\SC(=O)N(CC(=O)Nc3ccc4c(c3)OCO4)C2=O)o1 | 77.8
N#Cc1c2nc3ccccc3nc2n2cc(NC(=O)c3ccc(F)cc3)ccc12 | 64.1
O=C(Nc1cccc2nsnc12)c1ccc(-c2cccc(Cl)c2)o1 | 35.9
CN(CCO)c1nc(N)c2c(N)nc3c(c2c1C#N)CC(=O)N3C1CCCC1 | 35.1
O=C(O)c1ccc(/C=N/NC(=O)c2ccc(CN3c4cccc5cccc(c45)S3(=O)=O)cc2)cc1 | 47.1
COc1ccccc1C(=O)Nc1sc2c(c1C(=O)NCc1ccco1)CCCC2 | 50
O=C(/C=C/c1cccs1)Nc1scc(-c2ccccc2)c1C(=O)O | 88.7
CN1CCCc2cc3c(C(F)(F)F)cc(=O)oc3nc21 | 66.4
Cn1c(C(=O)NCC2CCCO2)cc2c(=O)n3ccccc3nc21 (stereo not drawn) | 59.5
Cc1c(N2C(=O)c3ccc4c5c(ccc(c35)C2=O)CC4)c(=O)n(-c2ccccc2)n1C | 80.9
